These results are taken from PubChem BioAssay (NCI).

The structures appear in SMILES notation.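 Test compounds were applied to cells in 96-well plates for 48 hours at 5 doses. GI50 marks 50% less growth.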 A number of entries come with more than one value. The other results are left out here. There may be further records. For some of these results: The records of an entry repeat one measurement in other runs, samples, wells, individuals or studies. Marks in square brackets tell the records apart. A, B and so on number the origins entry by entry.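 TGI is the concentration that stops growth completely.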 For some of these results: The tests behind the records often covered other concentration ranges, which the source does not state; a value can be the end of its range.

Test systems include RPMI-8226 leukemia; HCT-116 colon; SF-539 CNS; HCC-2998 colon; UO-31 renal; CAKI-1 renal; KM12 colon; HOP-92 NSCLC; NCI-H23 lung; OVCAR-4 ovarian; HT29 colon; NCI/ADR-RES ovarian; SK-MEL-2 melanoma; SNB-19 CNS; K-562 leukemia; OVCAR-3 ovarian; MCF7 breast; NCI-H226 lung; ACHN renal; U251 CNS; SR leukemia; MDA-MB-231 breast.
What all share (test): NCI anticancer screen, dose series, 48 h

With `COC(=O)c1ccc2c(c1)CCN2C(=O)c1cc2c(cc1Br)OCO2`, the TGI in the assay on RPMI-8226 leukemia is 3.45 µM and 95 µM; with HCT-116 colon, 8.7 µM and > 100 µM; in the assay on SF-539 CNS, 791 nM and > 100 µM; in the assay with HCC-2998 colon it was 4.23 µM and > 100 µM.
On to `Nc1ncnc2c1ncn2C1OC(CO)C(O)C1O` (stereo not drawn), for which the GI50 was 19.8 µM [sample A, mean of 2 tests] and > 100 µM [sample B, 1 test] and 376 µM [sample C, mean of 6 tests] in the assay on UO-31 renal; 20.6 µM [sample A, mean of 2 tests] and > 100 µM [sample B, 1 test] and 273 µM [sample C, mean of 6 tests] in the assay with CAKI-1 renal; 32 µM [sample A, mean of 2 tests] and > 100 µM [sample B, 1 test] and 352 µM [sample C, mean of 6 tests] in the assay on KM12 colon; 4.95 µM [sample A, mean of 2 tests] and > 100 µM [sample B, 1 test] and 217 µM [sample C, mean of 4 tests] with HOP-92 NSCLC; 19.9 µM [sample A, mean of 2 tests] and > 100 µM [sample B, 1 test] and 305 µM [sample C, mean of 6 tests] with RPMI-8226 leukemia; 18.4 µM [sample A, mean of 2 tests] and > 100 µM [sample B, 1 test] and 227 µM [sample C, mean of 5 tests] with NCI-H23 lung. The GI50 with OVCAR-4 ovarian is 27 µM [sample A, mean of 2 tests] and > 100 µM [sample B, 1 test] and > 450 µM [sample C, mean of 5 tests]; in the assay on HT29 colon, 3.21 µM [sample A, mean of 2 tests] and > 100 µM [sample B, 1 test] and 288 µM [sample C, mean of 5 tests]; with SK-MEL-2 melanoma, 43.8 µM [sample A, 1 test] and > 450 µM [sample B, mean of 5 tests]; in the assay on SNB-19 CNS it was 9.62 µM [sample A, mean of 2 tests] and > 100 µM [sample B, 1 test] and 235 µM [sample C, mean of 5 tests]; in the assay on K-562 leukemia, 1.11 µM [sample A, mean of 2 tests] and > 100 µM [sample B, 1 test] and 361 µM [sample C, mean of 5 tests]; in the assay on OVCAR-3 ovarian, 7.02 µM [sample A, mean of 2 tests] and > 100 µM [sample B, 1 test] and > 419 µM [sample C, mean of 6 tests]. In addition, the GI50 in the assay on MCF7 breast is 386 nM [sample A, mean of 2 tests] and 30.4 µM [sample B, 1 test] and 65.1 µM [sample C, mean of 5 tests]. The TGI in the assay on HOP-92 NSCLC is 35.3 µM [sample A, mean of 2 tests] and > 100 µM [sample B, 1 test] and > 436 µM [sample C, mean of 4 tests]; in the assay on NCI/ADR-RES ovarian it was 28.2 µM [sample A] and > 100 µM [sample B] and > 450 µM [sample C]; in the assay with OVCAR-3 ovarian it was 41.9 µM [sample A, mean of 2 tests] and > 100 µM [sample B, 1 test] and > 450 µM [sample C, mean of 6 tests]; with HCC-2998 colon, 5.72 µM [sample A] and > 100 µM [sample B] and 228 µM [sample C]; in the assay with MCF7 breast, 12.5 µM [sample A, mean of 2 tests] and > 100 µM [sample B, 1 test] and > 435 µM [sample C, mean of 5 tests].
As to `CCCCCc1c(C)[nH]c(/C=C2\N=C(c3ccc[nH]3)C=C2Oc2ccc(OC)cc2)c1C`, the TGI in the assay with NCI-H226 lung is 645 nM and 6.95 µM; with ACHN renal it was 642 nM and 10.3 µM; in the assay with U251 CNS it was 1.23 µM and 123 nM; in the assay on SR leukemia it was 541 nM and > 100 µM; with MDA-MB-231 breast it was 1.14 µM and 90.7 nM.
For the compound `O=c1cc(N2CCOCC2)oc2c(-c3ccccc3)cccc12`, in the assay with UO-31 renal, the TGI is 89.2 µM [sample A] and 3.61 µM [sample B].
